Source: article PMC6212790
The other results are listed elsewhere or left out. At the low end of the ranking the order means little.

target: T1, GST-Rok-C97-191 (UniProt O34857); experiment: protein binding microarray; conditions: Rok is a gene silencer of Bacillus subtilis; high values mean tight binding; most listed sequences are background and not binding sites; double strand, one strand shown;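 further: rank score from −0.5 (least bound) to 0.5 (best bound)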
T1 sequence: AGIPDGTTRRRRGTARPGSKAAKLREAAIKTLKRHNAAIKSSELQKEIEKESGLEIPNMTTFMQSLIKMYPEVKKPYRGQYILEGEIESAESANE

Row | Sequence | binding signal [E-score]
1 | ACAATTAC | 0.255
2 | ATCTAGAA | 0.241
3 | CGATTCGA | -0.0532
4 | CCAGGCCC | -0.389
5 | AGAACTGC | -0.0523
6 | GATAGACC | 0.022
7 | CCAACATC | -0.0228
8 | ACAAGGCC | -0.226
9 | ATCGCAAG | 0.12
10 | TATGGGAA | -0.066
11 | CAGGGGTC | -0.331
12 | ACCACATA | 0.146
13 | GGTTTACA | 0.122
14 | CTAATATC | 0.141
15 | CGCACCTC | -0.255
16 | CGGCCTCC | -0.345
17 | CTGTCAAC | -0.0452
18 | AAGGGATT | -0.164
19 | ATTTCCCC | -0.0821
20 | ATGAAATC | 0.0367
21 | AGTGATGA | 0.024
22 | ATCTCAAT | 0.0629
23 | CCTACCCG | -0.0318
24 | CCCGTGGC | -0.223
25 | TACCCTCA | -0.129

Row | Sequence | binding signal [E-score]
26 | CTGACCGA | -0.113
27 | ATTCGCTC | -0.063
28 | CTCACATA | 0.0489
29 | TATAGCCA | 0.0445
30 | CTGGACAC | -0.149
31 | CCCCTTAA | -0.166
32 | ATGAATCG | -0.0285
33 | GAATATCC | 0.0862
34 | CTCCCGCC | -0.285
35 | AAGTCATT | -0.0191
36 | GAAGCTAC | 0.309
37 | TGTCAACA | -0.107
38 | GTTGCCCA | -0.233
39 | ACGGTCGG | -0.302
40 | GCTGTACA | -0.0308
41 | AGGGACGG | -0.263
42 | CGAAGGGC | -0.3
43 | AGAGCTCA | -0.095
44 | CGACTACG | -0.0719
45 | CCTGGATC | -0.148
46 | CCGTTTCG | -0.0271
47 | CTTCAGTA | 0.123
48 | CCGATCAC | -0.173
49 | GGGTTAGA | -0.176
50 | CCAAGCCG | -0.103

Row | Sequence | binding signal [E-score]
51 | GGCGCCTA | -0.153
52 | ATACGCTC | -0.188
53 | AGGCGTAG | -0.0211
54 | GCCCGGGA | -0.113
55 | CTCAGAAA | -0.114
56 | GACAAAAC | -0.106
57 | AGTTAAAC | 0.0755
58 | CACGCCTA | -0.037
59 | ACGTGCCC | -0.364
60 | CACTTAGG | 0.00488
61 | AGACGGGC | -0.151
62 | AGCGCAGC | -0.249
63 | AGAATAGC | 0.0274
64 | GAAGACCC | -0.249
65 | AGCACTAA | -0.0507
66 | CCGTGTTC | -0.0105
67 | AGCGTCTA | 0.0643
68 | CCCTAGGG | -0.231
69 | ACGTACCC | -0.107
70 | CAACTGAC | -0.115
71 | GCCCCAGA | -0.161
72 | CTCCTGCC | -0.211
73 | AAAATGGA | -0.09
74 | ACGCGCAC | -0.146
75 | CCGAGAAC | -0.0632

Row | Sequence | binding signal [E-score]
76 | AGATACCA | 0.0917
77 | ATTATAAC | 0.174
78 | GAAGGCGA | -0.237
79 | CAACTTAC | 0.202
80 | AGTCTTTA | -0.0749
81 | TCCACGCA | -0.0634
82 | AAACTATC | 0.36
83 | GTGAAATA | 0.156
84 | GAATATGC | 0.007
85 | CCCAGTCC | -0.24
86 | ATCAAGCC | -0.14
87 | CTTGTTAA | 0.127
88 | GTGCAATA | -0.0946
89 | ACGGATTG | -0.036
90 | CCCTGATA | 0.0527
91 | ATAAAGTA | 0.29
92 | CGCCGCCG | -0.221
93 | CCGCTCCA | -0.0974
94 | AGTCCCCA | -0.122
95 | AGGGAAAG | -0.172
96 | CTTGATAA | 0.158
97 | CCAACAAG | -0.0674
98 | GTGAGCTA | 0.0327
99 | GCCACGGA | -0.258
100 | AAGCGGAT | 0.0367

Row | Sequence | binding signal [E-score]
101 | CAAGTGAA | -0.0164
102 | AGGGCTAA | -0.0356
103 | AACGCATC | -0.185
104 | TATTCGAA | 0.194
105 | AACAATAA | 0.194
106 | CGGTTATA | 0.128
107 | AGCGGTGA | 0.0385
108 | GGCGGGAC | -0.265
109 | ACCGAAAT | 0.208
110 | CACTAACC | 0.0226
111 | AAAGCGGG | -0.0411
112 | GTGTTAAA | -0.0569
113 | CTGCGCAA | -0.111
114 | AACCTAAG | 0.0134
115 | TGTGCTAA | 0.118
116 | CACTCTCC | -0.104
117 | GACCTGGA | -0.0196
118 | CGCGAAGA | 0.102
119 | CGGCGGGC | -0.277
120 | ACTTGATA | 0.212
121 | CCAGTTTA | -0.0153
122 | AATTAGGC | 0.193
123 | ACCGGGCT | -0.308
124 | CGTTTGGA | 0.0119
125 | AGATGTAT | 0.264

Row | Sequence | binding signal [E-score]
126 | ACTCGTGC | -0.123
127 | ATTGATGG | -0.162
128 | GGGCCGTA | -0.267
129 | CAGATCGG | -0.0569
130 | AGAGTTGC | -0.071
131 | CAGCTTGC | -0.162
132 | GCCACCAC | -0.0814
133 | CAGTGACA | 0.00145
134 | CCGATCCC | -0.273
135 | ATTCTCGA | 0.21
136 | ACTTGAAC | -0.123
137 | CCGCGAGG | -0.261
138 | AATATAGG | 0.0639
139 | GCGCGCAA | 0.0711
140 | ACTTCTTG | 0.00785
141 | ATGCGTAA | 0.148
142 | TAATAGCA | 0.276
143 | ACTTTGAA | -0.0356
144 | CTCGTGCA | -0.165
145 | TGTGCAAA | -0.144
146 | GATATGAC | 0.0403
147 | CGTCTAGA | 0.0312
148 | CGTCATCC | -0.0679
149 | AATTGTAG | 0.285
150 | CTCATCTC | -0.105

Row | Sequence | binding signal [E-score]
151 | AAGACGTA | -0.14
152 | GATAGATC | 0.268
153 | AGCTCCAG | -0.0943
154 | CATGTTCG | -0.0041
155 | TATGTGGA | 0.282
156 | ATTGAGCA | 0.0709
157 | CACGGTTA | 0.0638
158 | GATCGCAC | -0.226
159 | GGACTTAA | -0.17
160 | CTATGGAC | -0.117
161 | CCACACGA | 0.0572
162 | GGATACCC | -0.0581
163 | CGGGATTA | -0.0376
164 | CGGATAAC | 0.0271
165 | CTTCGCTC | -0.152
166 | CGGTTTAC | 0.109
167 | AGGAGCAT | -0.132
168 | GAGATCGC | -0.228
169 | AATGTACG | 0.155
170 | CCAGTAAA | 0.0523
171 | TTAAATAA | 0.179
172 | GGGCAAAC | -0.0768
173 | CCGTTCGA | -0.15
174 | ACTGAGCC | -0.241
175 | AGGATCGG | -0.2

Row | Sequence | binding signal [E-score]
176 | ACAGTAAG | 0.153
177 | CGAGCACC | -0.162
178 | CATATGGG | 0.0424
179 | CAGGTTCG | -0.31
180 | CGTACTTC | 0.0309
181 | CATGCGGA | -0.0164
182 | ACTCCGTG | -0.145
183 | CCCCTCGG | -0.417
184 | CTTTAACC | -0.0453
185 | ATGGTTAG | -0.0189
186 | AATGTAAT | 0.398
187 | ACAGGAGC | -0.0925
188 | CCATATTC | -0.00545
189 | ACGAGTTA | 0.224
190 | CGCCTTAA | -0.108
191 | TACTTCAA | 0.231
192 | CGGTTGGC | -0.223
193 | CCATCAAG | -0.235
194 | CCCCAACG | -0.281
195 | AAGTGATG | 0.0895
196 | CTTCTCGA | -0.166
197 | CAGACAAA | 0.00308
198 | AAGCAATC | 0.0576
199 | ATCTGACG | -0.131
200 | AAAGTCTG | -0.0684

Row | Sequence | binding signal [E-score]
201 | ACGAGAAT | 0.05
202 | ACGTGCCT | -0.189
203 | CGATTCCC | -0.114
204 | ATTATTTG | 0.0555
205 | CCCCTAGG | -0.277
206 | TAGGGTGA | -0.319
207 | CTGTAGCA | 0.243
208 | GCCAAGAC | -0.183
209 | CTGTGACA | -0.118
210 | ATGTATGA | -0.0125
211 | AATGTGGT | 0.175
212 | GAGTAACA | 0.0147
213 | GACAGACA | -0.102
214 | AGGTATAA | 0.251
215 | GAATTGGC | 0.0179
216 | TCCAGAGA | -0.119
217 | CGGAACCG | -0.064
218 | ATAACCTA | 0.18
219 | CCATATAG | 0.129
